Assay results as given in article PMC4336329 (PLoS ONE, 2015).
Among all 310,000 compounds or so, about 2,200 (0.71%) showed an effect of 50% or more. Effects have a minus sign here. The list shows a part of the results.

target: human ether-à-go-go-related gene (hERG) potassium channel (human, UniProt Q12809); assay: primary screen, population patch clamp on CHO cells stably expressing hERG
Sequence (Q12809 whole entry, looked up): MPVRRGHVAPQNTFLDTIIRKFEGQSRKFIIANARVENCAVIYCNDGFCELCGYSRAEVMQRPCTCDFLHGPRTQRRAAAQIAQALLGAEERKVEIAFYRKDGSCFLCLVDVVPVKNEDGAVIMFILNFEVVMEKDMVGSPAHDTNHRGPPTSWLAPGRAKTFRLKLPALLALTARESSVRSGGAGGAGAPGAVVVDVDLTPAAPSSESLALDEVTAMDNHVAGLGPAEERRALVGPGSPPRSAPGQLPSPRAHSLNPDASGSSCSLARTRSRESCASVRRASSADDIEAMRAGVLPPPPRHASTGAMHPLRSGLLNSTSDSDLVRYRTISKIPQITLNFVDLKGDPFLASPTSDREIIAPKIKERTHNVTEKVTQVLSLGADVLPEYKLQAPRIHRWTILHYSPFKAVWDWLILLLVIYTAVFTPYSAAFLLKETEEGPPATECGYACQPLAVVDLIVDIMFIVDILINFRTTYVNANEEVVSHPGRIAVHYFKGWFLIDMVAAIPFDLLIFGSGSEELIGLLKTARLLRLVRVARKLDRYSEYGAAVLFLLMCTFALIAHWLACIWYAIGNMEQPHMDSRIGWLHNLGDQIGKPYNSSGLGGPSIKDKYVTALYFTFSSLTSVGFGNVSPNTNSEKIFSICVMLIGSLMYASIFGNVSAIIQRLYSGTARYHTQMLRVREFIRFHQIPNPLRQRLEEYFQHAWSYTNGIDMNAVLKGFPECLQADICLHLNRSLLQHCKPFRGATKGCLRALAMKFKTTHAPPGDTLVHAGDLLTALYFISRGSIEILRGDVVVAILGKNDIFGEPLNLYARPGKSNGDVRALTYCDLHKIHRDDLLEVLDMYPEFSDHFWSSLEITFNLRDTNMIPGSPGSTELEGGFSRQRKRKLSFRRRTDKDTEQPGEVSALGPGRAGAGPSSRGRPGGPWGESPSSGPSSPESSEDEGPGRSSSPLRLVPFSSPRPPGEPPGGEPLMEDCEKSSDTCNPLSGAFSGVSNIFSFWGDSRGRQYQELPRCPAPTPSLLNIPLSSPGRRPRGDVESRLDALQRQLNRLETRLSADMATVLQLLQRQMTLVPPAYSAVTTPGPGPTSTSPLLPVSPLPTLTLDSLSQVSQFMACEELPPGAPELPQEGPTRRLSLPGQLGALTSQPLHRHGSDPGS

Compound | hERG current change (%, negative = inhibition) at 1uM [%]
Cc1[nH]c2ccccc2c1C(=O)C(=O)NC1CC(=O)N(c2ccc(F)cc2)C1 (stereo not shown) | -26.4
CN(C)c1ccc(C=C2C(=O)OC3(CCCC3)OC2=O)cc1 | 10.2
O=c1onc(-c2ccc(Cl)cc2Cl)n1-c1cccnc1 | 11.1
Cc1ccc(Cn2c(C3CCCN3c3nc(-c4ccc(F)cc4)cs3)nc3cc(Cl)c(Cl)cc32)cc1 (stereo not shown) | 10.1
CCCCNc1nc(N)nc(-c2cc(Cl)ccc2O)n1 | 8.93
CCOC(=O)c1nn(-c2ccccc2)c(=O)c2c(NC(C)=O)scc12 | 11.4
O=c1c2ccccc2ccc2ccccc12 | 7.17
O=C(Nc1ccc(CN2CCOCC2)cc1)c1ccc(-c2cccc(Cl)c2)o1 | -6.46
Cn1c(CC(=O)Nc2ccc(Cl)cc2)nnc1SCC(=O)N1CCOCC1 | 3.65
COc1ccc(Cl)cc1NC(=O)c1nnn(CC(=O)Nc2cc(C)cc(C)c2)c1N | 20.5
COc1ccccc1N1C(=O)N(C(C)=O)C2C1Nc1ccccc1N2C (stereo not shown) | 3.89
Fc1cccc(Cn2cc(C(=S)N3CCCCC3)c3ccccc32)c1 | 2.48
CN(C)CCCNc1nc(-c2ccccc2)nc2ccccc12.Cl | 11.5
CN(C)CCNC(=O)C(C(=O)c1ccc(F)cc1)n1ccccc1=O.Cl (stereo not shown) | 15
CC(C)(C)N(CC#CCC(O)(c1ccccc1)c1ccccc1)CCO | 8.71
CC(NC(=O)c1ccco1)C(=O)OCC(=O)N1CCCCCC1 (stereo not shown) | 14.6
Cc1cc(C)cc(C(=O)Nc2ccc(NC(=O)Cc3ccccc3)cc2)c1 | 5.69
Cc1ccc(CN2CC(C(=O)N3CCN(S(=O)(=O)c4cc(C)ccc4C)CC3)CC2=O)cc1 (stereo not shown) | 0.351
COc1ccccc1OCCNS(=O)(=O)c1ccc2oc3ccccc3c2c1 | 0.489
COc1ccccc1C(=O)C1CCCN(C(=O)c2cn3cc(Cl)ccc3n2)C1 (stereo not shown) | 8.23
CCCc1cnc(NCCNCC(O)COc2ccc(Cl)c(Cl)c2)nc1 (stereo not shown) | -30.7
CCc1c(C)[nH]c2ccccc2c1=O | -7.65
COc1ccc(NC(=O)CC(C)c2ccccc2)c([N+](=O)[O-])c1 (stereo not shown) | 14.5
Br.CCCC1CC(C)(C(=O)CSc2n[nH]c(-c3ccccc3)n2)OC1=O (stereo not shown) | -6.1
COc1cc(OC)c(Cl)cc1N | 8.91
CCc1cc2c(=O)n(Cc3ccco3)c(SCC(=O)NCC3CCCO3)nc2s1 (stereo not shown) | -60.5
CCC(=O)NC(C)C(c1cccs1)N1CCN(c2ccccc2)CC1 (stereo not shown) | 14.3
OCC[C@H]1C[C@H](O)[C@@H](O)[C@@]2(OCc3ccccc32)O1 | 9.39

Compound | hERG current change (%, negative = inhibition) at 1uM [%]
CCOc1ccccc1OCCCOc1ccc([N+](=O)[O-])cc1Cl | 12.4
COc1ccc(Cn2nnnc2C(c2cc(OC)ccc2OC)N2CCC(C(N)=O)CC2)cc1 (stereo not shown) | 7.16
Cn1cnnc1SC1c2cccc3cccc(c23)C1NS(=O)(=O)c1ccccc1 (stereo not shown) | -0.295
CC(O)c1cccc(NC(=O)Nc2cccc(NC(=O)Nc3cccc(C(C)O)c3)c2)c1 (stereo not shown) | 13.6
CC1CCc2sc(C(=O)NCCCn3ccnc3)cc2C1 (stereo not shown) | 11.6
CCCOc1ncnc2c1[nH]c1ccccc12 | 13.9
O=C(O)CSCC(=O)N1CCN(c2ccnc3cc(Cl)ccc23)CC1 | 6.12
C=CCOc1ccc(/C=C2\N=C(C)OC2=O)cc1OC | 14.9
COc1ccc(C(=O)CCC(=O)N2CCN(c3cccc(Cl)c3)CC2)cc1 | -9.92
COc1ccc(OC)c(N(CC(=O)NCCSCc2ccco2)S(=O)(=O)c2ccc(OC)c(OC)c2)c1 | 3.56
O=C(Nc1ccccc1)c1nnn(Cc2ccccc2)c1NC(=O)C(F)(F)F | 1.24
O=C(Nc1cccc(Cl)c1)/C(=C\c1cccnc1)NC(=O)c1ccco1 | -42.3
COc1cc(S(=O)(=O)Nc2ccccc2C(=O)N2CCCCC2)ccc1NC(C)=O | 13
CC(=O)N1CCN(S(=O)(=O)c2ccc3c(c2)CC(=O)N3)CC1 | 1.42
O=C(CC(c1ccccc1)c1ccccc1)Nc1ccc(C(=O)O)cc1 | 11.1
CC(NC(=S)Nc1ccc(S(=O)(=O)N2CCOCC2)cc1)C1CC2CCC1C2 (stereo not shown) | 10.9
Cc1cc(C)cc(C(=O)N(NC(=O)Nc2ccc(Cl)cc2)C(C)(C)C)c1 | 8.47
Cc1cc(C)n(CC(C)NC(=O)CCc2nnc(CCc3ccccc3)o2)n1 (stereo not shown) | 11.9
N#Cc1ccccc1OCC(O)CS(=O)(=O)c1ccccc1 (stereo not shown) | 7.85
COCCN(C(=O)CCc1nnc(CCc2c[nH]c3ccccc23)o1)C(C)C | 8.97
Cc1oc2cc3oc(=O)c(CCC(=O)N(C)CC(=O)O)c(C)c3cc2c1C | 10.2
COc1ccc(C(=O)CSc2ccc(-c3ccc(C)cc3)nn2)cc1 | 18.1
COc1ccc(NC(=O)c2nc(C)n(-c3ccc([N+](=O)[O-])cc3)n2)cc1 | 5.3
Cc1ccc(OCCn2ccnc2)c(C)c1 | 8.18
Cc1ccc(Cn2c(=O)n(CCC(=O)NCc3ccc4c(c3)OCO4)c(=O)c3ccccc32)cc1 | -0.532
Cc1nc(C(=O)NCc2ccccc2)sc1C1(C)CC(c2cccc([N+](=O)[O-])c2)=NO1 (stereo not shown) | 9.93
COCCNC(=O)C(c1ccc(C)cc1)N(C(=O)CCC(=O)Nc1ccccn1)c1ccccc1C (stereo not shown) | 14.8
